Assay results: publication PMC4336329 (PLoS ONE, 2015)
The campaign covered roughly 310,000 compounds. About 2,200 (0.71%) showed an effect of 50% or more. The effect is printed as a negative number. This is one part of the list.

What follows are compounds tested against human ether-à-go-go-related gene (hERG) potassium channel (human, UniProt Q12809) (assay: primary screen, population patch clamp on CHO cells stably expressing hERG).
Chain of human ether-à-go-go-related gene (hERG) potassium channel (Q12809 whole entry, looked up): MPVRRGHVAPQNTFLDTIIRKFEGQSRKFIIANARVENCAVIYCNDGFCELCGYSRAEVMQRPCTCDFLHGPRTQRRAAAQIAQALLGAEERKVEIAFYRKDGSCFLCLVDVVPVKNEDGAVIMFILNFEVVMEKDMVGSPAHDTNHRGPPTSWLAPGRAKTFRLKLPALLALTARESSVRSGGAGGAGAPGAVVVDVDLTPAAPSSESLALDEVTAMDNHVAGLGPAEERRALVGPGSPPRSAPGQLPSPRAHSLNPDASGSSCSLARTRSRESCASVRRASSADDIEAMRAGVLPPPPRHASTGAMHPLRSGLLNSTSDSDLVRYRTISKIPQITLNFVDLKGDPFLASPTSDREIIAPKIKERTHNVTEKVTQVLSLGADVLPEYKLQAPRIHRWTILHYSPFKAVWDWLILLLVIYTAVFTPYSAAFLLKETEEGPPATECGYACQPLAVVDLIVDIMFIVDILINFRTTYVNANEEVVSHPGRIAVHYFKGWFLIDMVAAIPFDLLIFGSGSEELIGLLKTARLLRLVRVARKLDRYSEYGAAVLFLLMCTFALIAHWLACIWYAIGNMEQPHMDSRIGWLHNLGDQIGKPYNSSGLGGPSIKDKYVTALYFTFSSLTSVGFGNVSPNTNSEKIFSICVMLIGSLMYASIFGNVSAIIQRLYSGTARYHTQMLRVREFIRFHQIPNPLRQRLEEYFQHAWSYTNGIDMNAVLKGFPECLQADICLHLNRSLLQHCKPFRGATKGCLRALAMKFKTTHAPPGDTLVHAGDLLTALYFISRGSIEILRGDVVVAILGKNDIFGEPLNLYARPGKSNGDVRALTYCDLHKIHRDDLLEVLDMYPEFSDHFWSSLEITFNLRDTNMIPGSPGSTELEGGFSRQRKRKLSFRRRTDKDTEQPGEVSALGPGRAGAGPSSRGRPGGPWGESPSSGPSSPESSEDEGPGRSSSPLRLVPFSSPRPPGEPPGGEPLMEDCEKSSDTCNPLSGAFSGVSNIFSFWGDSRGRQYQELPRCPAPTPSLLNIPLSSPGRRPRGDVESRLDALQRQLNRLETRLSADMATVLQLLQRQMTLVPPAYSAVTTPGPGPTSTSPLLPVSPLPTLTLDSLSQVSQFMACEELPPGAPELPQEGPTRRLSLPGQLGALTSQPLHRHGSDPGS

**Q.** CSc1cccc(CNC(=O)C2CCC(=O)N(CCCN3CCCC3=O)C2)c1 (stereo not shown) was tested. Which “hERG current change (%, negative = inhibition) at 1uM” value did it give?
**A.** Its value is 25.3%.

**Q.** How did the “hERG current change (%, negative = inhibition) at 1uM” value turn out when CC(C)(C)c1csc(NC(=O)c2cccs2)n1 was run?
**A.** The value was 7.51%.

**Q.** Which “hERG current change (%, negative = inhibition) at 1uM” value does the source give for CCCCNC(=O)CSc1nnc(-c2c[nH]c3ccccc23)n1CC1CCCO1 (stereo not shown) here?
**A.** Its value is 2.47%.

**Q.** CC(=O)Nc1ccc(OC(=O)c2cccs2)cc1 was tested. Which “hERG current change (%, negative = inhibition) at 1uM” value did it give?
**A.** Its value is -11.1%.

**Q.** How did the “hERG current change (%, negative = inhibition) at 1uM” value turn out when Cc1ccc(S(=O)(=O)N2CC(=O)Nc3ccccc32)cc1 was run?
**A.** Its value is -1.29%.

**Q.** For Cn1nc(C(=O)NCCc2ccc(S(N)(=O)=O)cc2)c2c1-c1ccccc1S(=O)(=O)C2, which “hERG current change (%, negative = inhibition) at 1uM” value is on record?
**A.** The value was 11%.

**Q.** COc1ccccc1N/N=C1\COC(C)(C)CC1=O was tested. Which “hERG current change (%, negative = inhibition) at 1uM” value did it give?
**A.** The value was 10.4%.

**Q.** For COc1cc2nc(N(CCCN(C)C)C(=O)c3ccc(S(=O)(=O)N4CCc5ccccc54)cc3)sc2cc1OC.Cl, which “hERG current change (%, negative = inhibition) at 1uM” value is on record?
**A.** The value was 4.8%.

**Q.** NC(=O)CSc1nc2cc(Cl)ccc2c(=O)n1C1CCCCC1 was tested. Which “hERG current change (%, negative = inhibition) at 1uM” value did it give?
**A.** The value was 18.7%.

**Q.** CC(=O)Nc1ccc(NC2CCCCC2NS(=O)(=O)c2ccccc2)cc1 (stereo not shown) was tested. Which “hERG current change (%, negative = inhibition) at 1uM” value did it give?
**A.** Its value is 13.3%.

**Q.** For CC(C)OC(=O)CSc1nnc(Cc2ccccc2)n1C, which “hERG current change (%, negative = inhibition) at 1uM” value is on record?
**A.** The value was -0.231%.

**Q.** COc1cccc(N2CCC(N3CCN(C)C(CCO)C3)CC2)c1 (stereo not shown) was tested. Which “hERG current change (%, negative = inhibition) at 1uM” value did it give?
**A.** Its value is 20%.

**Q.** With CCOc1ccc2nc(N/C(N)=N/C(=S)Nc3cccc(OC)c3)nc(C)c2c1 as the compound, how does the “hERG current change (%, negative = inhibition) at 1uM” value read?
**A.** Its value is 8.15%.

**Q.** With CCOC(=O)NN1C(=O)c2ccccc2NC1c1cccs1 (stereo not shown) as the compound, how does the “hERG current change (%, negative = inhibition) at 1uM” value read?
**A.** Its value is -13.2%.

**Q.** With COCCNC(=O)C(c1ccc(F)cc1)N(Cc1ccccc1)C(=O)CCC(=O)Nc1ccccn1 (stereo not shown) as the compound, how does the “hERG current change (%, negative = inhibition) at 1uM” value read?
**A.** Its value is 11.9%.

**Q.** Which “hERG current change (%, negative = inhibition) at 1uM” value does the source give for O=C(CN1C(=O)C2C3C=CC(C4CC34)C2C1=O)Oc1ccccc1 (stereo not shown) here?
**A.** The value was 12%.

**Q.** With Cc1ccc(CCNC(=O)CS(=O)Cc2nc(-c3cccc(C)c3)oc2C)cc1 (stereo not shown) as the compound, how does the “hERG current change (%, negative = inhibition) at 1uM” value read?
**A.** The value was 5.88%.

**Q.** Cc1ccc(N2CCN(S(=O)(=O)N(C)C)CC2)cc1C was tested. Which “hERG current change (%, negative = inhibition) at 1uM” value did it give?
**A.** Its value is 13.5%.

**Q.** How did the “hERG current change (%, negative = inhibition) at 1uM” value turn out when NC(=S)N/N=C1\CC(n2nnn(-c3cccc(Cl)c3)c2=S)C2COC1O2 (stereo not shown) was run?
**A.** The value was -8.57%.

**Q.** How did the “hERG current change (%, negative = inhibition) at 1uM” value turn out when CCOC(=O)C1CCN(C(=O)CN2C(=O)NC3(CCCCC3)C2=O)CC1 was run?
**A.** Its value is 8.81%.

**Q.** CCCS(=O)(=O)N1CCCC(C(=O)NCc2cccnc2)C1 (stereo not shown) was tested. Which “hERG current change (%, negative = inhibition) at 1uM” value did it give?
**A.** The value was 13.7%.

**Q.** With Cc1ccc2nc(SCC(=O)OCc3ccccc3)nc(=O)n2c1 as the compound, how does the “hERG current change (%, negative = inhibition) at 1uM” value read?
**A.** Its value is -10.9%.

**Q.** For CC(=O)c1c(N2CCN(Cc3ccccc3)CC2)nc(=S)n(Cc2ccccc2)c1C, which “hERG current change (%, negative = inhibition) at 1uM” value is on record?
**A.** Its value is -4.24%.

**Q.** Which “hERG current change (%, negative = inhibition) at 1uM” value does the source give for Cn1cc(-c2ccccc2C(=O)O)c(=O)c2ccccc21 here?
**A.** Its value is 10.3%.

**Q.** With N#Cc1c(NC(=O)CSCC(=O)O)sc2c1CCCC2 as the compound, how does the “hERG current change (%, negative = inhibition) at 1uM” value read?
**A.** The value was 11.9%.
